Measurements as given in the BET-seq Pho4 binding data (Le et al. 2018).
This is one part of the list. Values were computed here from the reads of four pooled replicates and scatter widely.

molecular target: T1, Pho4 (S. cerevisiae) (UniProt P07270); assay: relative binding free energy (BET-seq); higher = weaker binding; conditions: reference: library average
T1 sequence: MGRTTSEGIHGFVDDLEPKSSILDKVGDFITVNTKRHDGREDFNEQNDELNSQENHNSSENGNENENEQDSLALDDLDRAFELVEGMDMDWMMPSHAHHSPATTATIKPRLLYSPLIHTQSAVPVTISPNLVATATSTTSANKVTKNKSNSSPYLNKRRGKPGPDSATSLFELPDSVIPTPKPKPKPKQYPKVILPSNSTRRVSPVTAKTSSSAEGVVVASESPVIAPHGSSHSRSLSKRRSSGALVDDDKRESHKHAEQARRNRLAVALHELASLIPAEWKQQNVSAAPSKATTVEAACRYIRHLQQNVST

Sequence	relative binding free energy [kcal/mol]
TGGGCCACGTGTATTG	-0.11
CAGGTCACGTGCGGTT	0.1
TAATGCACGTGGTGTG	-0.12
ATTGTCACGTGTTACG	0.04
TCTTGCACGTGCAGTG	0.08
ACTATCACGTGTTTGG	0.02
ATTAACACGTGATTAG	0.11
TTAATCACGTGAGTGC	0.35
CCCGGCACGTGGGGGT	-0.29
TTACTCACGTGGTCGT	0.32
CGATTCACGTGGCTTG	0.3
TTGTTCACGTGATGAC	0.33
AAGAGCACGTGGTGGC	-0.14
TGAGTCACGTGAGGGG	0.26
TACGTCACGTGGTGCT	0.01
GGGTTCACGTGGGACG	0.29
ATGTCCACGTGGGTGT	-0.3
TTTTCCACGTGTGAGT	0.1
CATGGCACGTGAGTTG	0.16
GGTCGCACGTGAGGGA	-0.02
CTTTGCACGTGTATGA	0.01

Sequence	relative binding free energy [kcal/mol]
GGGTTCACGTGTGAAC	0.3
ATTGGCACGTGGGTGG	-0.14
CGCTACACGTGTGTGG	0.04
GGCGTCACGTGATTTA	0.36
CGGTGCACGTGTTGGG	0.08
TAAGGCACGTGGGATA	-0.21
AGTGCCACGTGCGTTT	-0.06
AATGCCACGTGGGGTG	-0.26
TGCAGCACGTGTGGTT	0.06
TTCGTCACGTGGAGAG	0.07
AAGGGCACGTGGCGGG	-0.17
AGGTACACGTGGGCGT	0
GATTCCACGTGTTATT	0.21
TATAGCACGTGGAGAT	-0.13
GAGGCCACGTGTAGTG	0.07
TTGGACACGTGATTCG	0.21
TTGGACACGTGGCGGC	0.03
TTATTCACGTGTACGG	0.3
CGGTACACGTGGGGAG	0.05
GTGGACACGTGAGGCG	0.36
CTAGGCACGTGGATTT	0.01

Sequence	relative binding free energy [kcal/mol]
TTATGCACGTGTCGTC	0.05
ATGCTCACGTGCAGGG	0.15
AGGAACACGTGGGTTT	0
GTGTACACGTGTTGTC	0.12
AGTGCCACGTGTTTTT	-0.02
TTGTTCACGTGGAGAC	0.34
GTGAGCACGTGTGGAC	-0.01
ATGTACACGTGTGCGG	0.02
TTTGTCACGTGTTATC	0.19
TGCGGCACGTGAATGC	0.24
CCTGGCACGTGGGTGT	-0.21
CGAGACACGTGTGGTA	-0.01
GTGTACACGTGGGTTA	-0.08
ACGGTCACGTGATAGG	0.17
GAGGGCACGTGCTAGT	-0.19
TTTTTCACGTGAAGTG	0.42
TGAGTCACGTGGCTGG	-0.05
GTGTCCACGTGGGGGC	-0.15
GTTTGCACGTGTCGGC	0.11
TGACTCACGTGGTGGG	0.2
GGTGTCACGTGTGCTT	0.06
